# According to PMC4336329 (PLoS ONE, 2015):
# About 14,000 (4.5%) of roughly 310,000 compounds showed an effect of 50% or more. The effect is printed as a negative number. Some of the results follow. Where a SMILES comes first, the peptide text is derived from it. The star is where a group is joined. Boc = CC(C)(C)OC(=O)*; OBn = c1ccc(CO*)cc1
# Molecular target: human ether-à-go-go-related gene (hERG) potassium channel (human, UniProt Q12809)
# Assay: primary screen, population patch clamp on CHO cells stably expressing hERG
# 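Also: peak tail current of the secondary pulse compared with the same well before compound.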
# Chain of human ether-à-go-go-related gene (hERG) potassium channel (Q12809 whole entry, looked up): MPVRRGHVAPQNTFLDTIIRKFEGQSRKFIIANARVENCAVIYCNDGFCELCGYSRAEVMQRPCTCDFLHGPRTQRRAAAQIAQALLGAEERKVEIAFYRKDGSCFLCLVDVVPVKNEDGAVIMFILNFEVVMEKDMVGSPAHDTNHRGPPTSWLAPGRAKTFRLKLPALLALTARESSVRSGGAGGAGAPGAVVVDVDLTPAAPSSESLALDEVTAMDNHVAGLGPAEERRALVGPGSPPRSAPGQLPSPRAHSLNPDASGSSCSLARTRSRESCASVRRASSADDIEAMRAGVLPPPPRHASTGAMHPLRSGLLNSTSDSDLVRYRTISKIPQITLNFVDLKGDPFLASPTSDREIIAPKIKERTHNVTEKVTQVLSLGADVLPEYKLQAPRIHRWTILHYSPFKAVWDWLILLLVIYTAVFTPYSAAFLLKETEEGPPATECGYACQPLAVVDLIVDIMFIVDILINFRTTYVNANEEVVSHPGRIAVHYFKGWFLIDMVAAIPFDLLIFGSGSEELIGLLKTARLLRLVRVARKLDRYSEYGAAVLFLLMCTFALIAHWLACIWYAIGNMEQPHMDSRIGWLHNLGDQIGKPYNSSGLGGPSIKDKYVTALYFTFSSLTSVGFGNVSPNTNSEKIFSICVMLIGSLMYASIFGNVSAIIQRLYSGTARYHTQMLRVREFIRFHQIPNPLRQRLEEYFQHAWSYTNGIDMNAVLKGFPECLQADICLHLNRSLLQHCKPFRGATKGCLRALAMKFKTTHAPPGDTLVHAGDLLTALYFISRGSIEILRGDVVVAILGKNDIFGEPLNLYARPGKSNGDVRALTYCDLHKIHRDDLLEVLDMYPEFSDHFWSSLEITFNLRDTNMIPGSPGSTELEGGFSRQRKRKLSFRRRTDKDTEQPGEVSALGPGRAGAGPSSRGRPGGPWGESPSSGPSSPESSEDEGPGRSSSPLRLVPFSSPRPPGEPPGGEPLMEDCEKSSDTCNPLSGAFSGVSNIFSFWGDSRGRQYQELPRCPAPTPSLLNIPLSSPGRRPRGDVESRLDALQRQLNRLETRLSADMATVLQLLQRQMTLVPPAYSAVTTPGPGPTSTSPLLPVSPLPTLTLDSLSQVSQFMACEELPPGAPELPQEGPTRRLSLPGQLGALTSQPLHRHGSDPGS
row,Compound,"hERG current change (%, negative = inhibition) at 10uM"
1,COc1ccc(N2CSC3=C(C#N)C(c4cccs4)CC(=O)N3C2)cc1 (centres unmarked),-4.22%
2,COc1ccc(S(=O)(=O)N(C)CC(=O)NCc2cccnc2)cc1OC,2.63%
3,CC(C)(C)c1ccc(/C=C/C(=O)Nc2nncs2)cc1,5.69%
4,COc1ccc(NCC(=O)Nc2ccc(C#N)cc2)cc1Cl,-12.4%
5,O=C(Nc1nnc(C2=COCCO2)o1)c1cccc(C(F)(F)F)c1,4.13%
6,CC(=O)c1ccccc1NC(=O)COC(=O)/C=C/c1ccc(C)o1,-9.01%
7,CSc1ncc(C(=O)Nc2cccc(C)c2C)c(C)n1,9.56%
8,O=C(CSc1nc2ccccc2c(=O)n1-c1ccccc1)NCC1CCCO1 (centres unmarked),20.2%
9,O=C(COc1ccccc1O)Nc1ccc(Cl)cc1,5.23%
10,COc1ccccc1C(CNC(=O)c1ccc(NS(=O)(=O)c2ccc(F)c(C)c2)cc1)N(C)C (centres unmarked),-24.4%
11,CCOC(=O)c1cnc(Nc2ccc(OCC)cc2)nc1C,12.6%
12,Cc1c(NC(=O)C(C)OC(=O)COc2ccc(C#N)cc2)c(=O)n(-c2ccccc2)n1C (centres unmarked),-46.9%
13,CC1CCN(CC2C(=O)O[C@@H]3C[C@@]4(C)CCC[C@H](C)C4=C[C@H]23)CC(C)(C)C1 (some centres unmarked),15%
14,O=S(=O)(NCC(c1cccs1)N1CCc2ccccc2C1)c1ccccc1 (centres unmarked),-8.41%
15,O=C(CSc1nccc(=O)[nH]1)c1cc2ccccc2o1,10.9%
16,COc1ccccc1CNC(=O)CCCc1ccccc1,0.395%
17,CCCC(O)(CCN(C)C)c1ccc(OC)cc1 (centres unmarked),9.14%
18,N#CC(C(=O)NCCc1ccccc1)c1nc2ccccc2nc1N1CCCCC1 (centres unmarked),-5.88%
19,Cc1cc(C)n2nc(CC(=O)NCc3ccc(F)cc3)nc2n1,-0.0725%
20,Cc1ccc(C(=O)Nc2ccnc(-c3ccncc3)n2)cc1,6.03%
21,CC(C)CC(NC(=O)C(NC(=O)OC(C)(C)C)C(C)C)C(=O)NC(CCC(=O)OCc1ccccc1)C(N)=O (stereo not drawn) (Boc-Val-Leu-Glu(OBn)-NH2; configuration not given here),-1.72%
22,Cn1nc(C(=O)Nc2ccc(Cl)c(S(=O)(=O)N3CCOCC3)c2)c2ccccc2c1=O,-9.05%

row,Compound,"hERG current change (%, negative = inhibition) at 10uM"
1,CCCCNC(=O)CNC(=S)N(Cc1cc(OC)c(OC)c(OC)c1)C1CCCC1,-12.2%
2,COCCNC(=O)N1[C@H]2CC[C@@H]1C(C(=O)OC)=C(c1ccc(-c3ccccc3)c(F)c1)C2,-10.4%
3,COc1ccc(CC(=O)Nc2nc(-c3ccncc3)cs2)cc1,5.97%
4,O=C(NCCCn1ccnc1)c1cc(-c2ccc(Br)cc2)on1,-51.6%
5,Cc1ccc([N+](=O)[O-])cc1-c1ccc(/C=N\n2nnnc2N)o1,-5.53%
6,COc1ccc(S(=O)(=O)N2CCCCCC2)cc1C(=O)NCCc1ccc(F)cc1,-31.4%
7,COC(=O)c1cc2c(cc1Cl)SC(=NCCCN1CCOCC1)NS2(=O)=O,-27.5%
8,CCOC(=O)c1ccc(NC(=O)Cn2cc3c(n2)CCC(C)C3)cc1 (centres unmarked),-4.16%
9,CCC1=NN2C(=N)/C(=C\c3ccc(SCc4ccco4)o3)C(=O)N=C2S1,-0.273%
10,Cc1ccn2cc(CCNS(=O)(=O)c3ccc([N+](=O)[O-])cc3)nc2c1,-69.7%
11,COCCC(=O)N1CCC(Oc2ccc(C(=O)N3CCCCCCC3)cc2)CC1,4.88%
12,N/C(Cc1ccc([N+](=O)[O-])cc1)=N\OC(=O)c1ccc2ccccc2c1,2.02%
13,Cc1ccccc1-c1noc(-c2ccccc2C(=O)NCC2CCCO2)n1 (centres unmarked),-3.02%
14,COc1ccc(C(=O)NCC(=O)Nc2cccc(S(=O)(=O)NCc3ccco3)c2)cc1OC,13.8%
15,O=C(Cc1c(F)cccc1Cl)Nc1ncc([N+](=O)[O-])s1,20.9%
16,CCCCNC(=O)Nc1nc2ccccc2s1,-5.74%
17,O=C(O)Cn1c(=O)c2c3c(sc2n(Cc2ccc(F)cc2)c1=O)CCCC3,17.9%
18,COc1ccccc1NS(=O)(=O)c1ccc(N/N=C/c2ccccc2OCC(=O)O)c([N+](=O)[O-])c1,-1.09%
19,CC(=O)c1c(C)[nH]c(C(=O)N2CCN(S(=O)(=O)c3ccc(C)cc3C)CC2)c1C,-19.2%
20,Cc1cccn2cc(CCNC(=O)c3cccs3)nc12,-7.55%
21,CCN(CC)C(=O)CSc1ncnc2c1nnn2-c1ccc(F)cc1,-3.22%
22,Cc1nnc2sc(-c3csc4c3CCCC4)nn12,-18.2%

row,Compound,"hERG current change (%, negative = inhibition) at 10uM"
1,O=C1c2sc3nc4c(c(=O)n3c2C(=O)N1c1ccccc1)CCC4,-3.29%
2,O=C(CN(C(=O)c1csnn1)c1cccc(F)c1)NC1CCCC1,17.3%
3,N#CCc1ccc(NC(=O)c2ccc(S(=O)(=O)N3CCOCC3)cc2)cc1,1.97%
4,Cn1c(NNC(=O)c2cccc3ccccc23)cc(=O)n(C)c1=O,6.73%
5,COc1ccc(NC(=O)c2cccnc2C(=O)O)c(OC)c1,15.6%
6,O=C(COC(=O)/C(=C/c1cccs1)c1cccs1)NC(c1ccccc1)c1ccccc1,7.68%
7,FC(F)(F)c1cccc(NC(=S)NNC(=S)Nc2cccc(C(F)(F)F)c2)c1,23.7%
8,Cc1[nH]c2ccccc2c1C(=O)CSc1nc2ccccc2[nH]1,1.74%
9,CN1CCN(C(=O)C2CC(=O)N(c3ccc(Cl)cc3)C2)CC1 (centres unmarked),-17.7%
10,Br.NS(=O)(=O)c1ccc(Nc2nc(-c3cccc([N+](=O)[O-])c3)cs2)cc1,31.9%
11,OC(c1ccc(F)cc1)C(CN1CCOCC1)c1ccccc1 (centres unmarked),5.57%
12,Cc1nc2ccccc2nc1OCC(=O)Nc1ccc2ccccc2c1,-6.32%
13,Cn1cc(/C=N/NC(N)=S)c2ccccc21,0.216%
14,Cc1ccc(NC(=O)CN2C(=O)NC(Cc3c[nH]c4ccccc34)C2=O)cc1S(=O)(=O)N1CCCCC1 (centres unmarked),1.38%
15,COc1cc2nc(Cl)nc(N3CCCCC3)c2cc1OC,-15.6%
16,COc1ccc(CCNCC(O)Cn2c3ccccc3c3ccccc32)cc1OC (centres unmarked),-4.71%
17,Cn1cccc1Cc1nnc(SCC(=O)NC2CCCCC2)n1-c1ccc(F)cc1,-16.9%
18,Cc1ccc(S(=O)(=O)N2CCN(C(=O)COC(=O)CNC(=O)c3ccccc3)CC2)c(C)c1,-22.9%
19,Cc1cc(=O)oc2c(C)c(OCC(=O)N3C[C@H]4C[C@@H](C3)c3cccc(=O)n3C4)ccc12,-0.0288%
20,Cc1cc(C)c2c(CN3CCN(Cc4ccc5c(c4)OCO5)CC3)cc(=O)oc2c1C,-45.8%
21,CCN(C(=O)c1ccco1)c1nc(CC(=O)Nc2ccc(Cl)cc2)cs1,-6.6%
22,CCN(CC)CCn1c2c(c(SCC(=O)Nc3ccccc3Cl)nc1=O)CCC2,-59.8%

row,Compound,"hERG current change (%, negative = inhibition) at 10uM"
1,CC(NC1CCCC1)C(=O)Nc1ccccc1-c1ccccc1 (centres unmarked),4.92%
2,CCOC(=O)N1CCN(C(=O)c2cc(-c3ccc(OCC)cc3)nc3ccccc23)CC1,-31.1%
3,Cc1cc(C)c2sc(NC(=O)c3ccc(N4C(=O)CCC4=O)cc3)nc2c1,2.56%
4,COc1ccc(/C=N/NC(=O)c2sc(C)nc2C)cc1,9.17%
5,COc1ccc(N2CC(NS(=O)(=O)c3ccc(F)cc3)CC2=O)cc1 (centres unmarked),21%
6,COc1ccc(N2CCN(C(=O)COC(=O)Cc3c(F)cccc3Cl)CC2)cc1,-79%
7,Cc1c(NC(=O)COC(=O)C2CC3C=CC2C3)c(=O)n(-c2ccccc2)n1C (centres unmarked),13.2%
8,N#Cc1c(NC(=O)CSc2nc3ccccc3s2)sc2c1CCCC2,7.12%
9,O=c1c2ccccc2nc2c3ccccc3c(NCc3ccccn3)nn12,-13.5%
10,COc1ccc(OC)c(S(=O)(=O)Nc2cc3c4c(c2)CCN4C(=O)CC3)c1,-2.69%
11,Cc1ccc(NC(=O)C2CC2C)cc1S(=O)(=O)N1CCOCC1 (centres unmarked),-21.4%
12,CCS(=O)(=O)n1nc(-c2ccccc2)nc1NCc1ccco1,-29.9%
13,CSc1nc(C)cc(C)c1C(N)=O,8.49%
14,COCCNCCCCOc1ccccc1-c1ccccc1.O=C(O)C(=O)O,-27.5%
15,COCCNCC(=O)C12CC3CC(CC(C3)C1)C2.Cl,4.15%
16,CS(=O)(=O)N(Cc1ccccc1Cl)c1ccc(C(=O)N2CCCC2)cc1,4.59%
17,O=c1c2ccccc2ncn1CCCSc1ccc(Cl)cc1,-4.74%
18,COc1ccc(C)cc1S(=O)(=O)n1nc(C)cc1C,23.8%
19,CN1CCN(S(=O)(=O)c2ccc(NS(=O)(=O)c3ccccc3)cc2)CC1,14.5%
20,COc1ccc(S(=O)(=O)N2CCN(CCC(=O)Nc3ccc(F)cc3)CC2)cc1,-18.9%
